# The antibiotic and cytotoxicity screens of Wong et al. (2023)
# Some of the results follow.
# How the values were obtained:
# HSkMC = human skeletal muscle cells; test: cytotoxicity call (relative viability < 0.9); conditions: 10 µM
# HepG2 = test: cytotoxicity call (relative viability < 0.9); conditions: 10 µM
# S. aureus RN4220 = test: growth inhibition call (relative growth <= 0.2); conditions: 50 µM
Structure (SMILES),cytotoxicity call (HSkMC),cytotoxicity call (HepG2),growth inhibition call (S. aureus RN4220)
C[C@H]1CCCCO[C@H](CN(C)Cc2ccc(Cl)c(Cl)c2)[C@@H](C)CN([C@@H](C)CO)C(=O)c2cc(NC(=O)Cc3ccccc3)ccc2O1,inactive,active,inactive
CC(=O)NC[C@H]1C[C@@H](N(C(C)=O)S(=O)(=O)c2cccc3cncc(C)c23)CN1,inactive,inactive,inactive
C[C@H](CO)N1C[C@H](C)[C@@H](CN(C)C(=O)CCN2CCCCC2)Oc2ncc(C#CCN(C)C)cc2C1=O,inactive,inactive,inactive
Cc1cc(C(=O)Nc2cccc3c2O[C@@H](CN(C)Cc2ccccc2)[C@H](C)CN([C@@H](C)CO)C3=O)n(C)n1,inactive,inactive,inactive
CCS(=O)(=O)Nc1ccc2c(c1)C(=O)N(C)C[C@H](OC)[C@@H](C)CN(C(=O)c1ccc3c(c1)OCO3)[C@H](C)CO2,inactive,inactive,inactive
CCCCCCCCCCCCCCCC(=O)OC(C)C,inactive,inactive,inactive
O=C(O)Cc1ccc(-c2ccccc2)cc1,inactive,inactive,inactive
C[C@H](CO)N1C[C@H](C)[C@H](CN(C)C(=O)Nc2ccc(F)cc2)Oc2ccc(NC(=O)CCN3CCOCC3)cc2C1=O,inactive,inactive,inactive
COCC(=O)N(C)C[C@@H]1Oc2cc(C#CCC3CCCC3)ccc2S(=O)(=O)N([C@@H](C)CO)C[C@@H]1C,inactive,inactive,inactive
C[C@@H]1CN([C@H](C)CO)C(=O)Cc2cc(NC(=O)CCN3CCOCC3)ccc2O[C@H]1CN(C)CC1CCCCC1,inactive,inactive,inactive
CN(C)C(=O)CN1CCN(C)C(=O)[C@]12CCN(c1ncc(F)cn1)C2,inactive,inactive,inactive
C[C@@H]1CN([C@@H](C)CO)C(=O)c2cc(NS(=O)(=O)c3cn(C)cn3)ccc2O[C@@H](C)CCCCO[C@@H]1CN(C)C(=O)CCCN(C)C,inactive,inactive,inactive
Cc1cccc(Nc2ccccc2C(=O)O)c1C,inactive,inactive,inactive
C[C@@H]1CN([C@@H](C)CO)C(=O)c2cc(C3=CCCC3)cnc2O[C@H]1CN(C)C(=O)c1ccc2c(c1)OCO2,inactive,inactive,inactive
C[C@@H]1CCCCO[C@H](CN(C)S(=O)(=O)c2ccc(F)cc2)[C@H](C)CN([C@@H](C)CO)C(=O)c2cc(NC(=O)c3ccccc3)ccc2O1,inactive,inactive,inactive
COc1ccc(CNC(=O)[C@H](c2ccc(C)cc2)N(Cc2cccs2)C(=O)c2ccc3c(c2)OCCO3)cc1,active,inactive,inactive
COc1ccc(CN(C)C[C@@H]2OCCCC[C@H](C)Oc3ccc(NC(=O)NC(C)C)cc3C(=O)N([C@@H](C)CO)C[C@H]2C)cc1,inactive,inactive,inactive
C[C@@H]1CCCCO[C@H](CN(C)C(=O)Cc2ccccc2)[C@H](C)CN([C@H](C)CO)C(=O)c2cc(NS(=O)(=O)c3ccc(F)cc3)ccc2O1,inactive,inactive,inactive
COc1ccccc1C#Cc1cnc2c(c1)C(=O)N([C@H](C)CO)C[C@H](C)[C@@H](CN(C)C(=O)c1ccc3c(c1)OCO3)O2,inactive,inactive,inactive
C[C@@H]1CN([C@@H](C)CO)C(=O)c2cc(C#CC(C)(C)O)cnc2O[C@@H]1CN(C)C(=O)CN(C)C,inactive,inactive,inactive
CNC[C@H]1Oc2ccc(NC(=O)Cn3cnnn3)cc2C(=O)N([C@H](C)CO)C[C@H]1C,inactive,inactive,inactive
C[C@H](CO)N1C[C@H](C)[C@@H](CN(C)S(C)(=O)=O)Oc2ccc(NS(C)(=O)=O)cc2C1=O,inactive,inactive,inactive
Cc1ccc(S(=O)(=O)N(C)C[C@H]2OCCCC[C@@H](C)Oc3ccc(NS(=O)(=O)c4ccc(F)cc4)cc3C(=O)N([C@H](C)CO)C[C@@H]2C)cc1,inactive,inactive,inactive
C[C@@H]1CCCCO[C@@H](CN(C)C(=O)Nc2ccccc2)[C@H](C)CN([C@H](C)CO)C(=O)c2cc(NS(=O)(=O)c3ccc(F)cc3)ccc2O1,inactive,active,inactive
C[C@@H]1CCCCO[C@H](CN(C)C(=O)Nc2cccc3ccccc23)[C@H](C)CN([C@@H](C)CO)C(=O)c2cc(NS(=O)(=O)c3ccc(Cl)cc3)ccc2O1,inactive,inactive,inactive
COCCNC(=O)C[C@@H]1CC[C@H]2[C@H](COc3ccc(NS(=O)(=O)c4ccc(Cl)cc4)cc3C(=O)N2C)O1,inactive,inactive,inactive
C[C@H](CO)N1C[C@H](C)[C@@H](CN(C)Cc2ccc(C(F)(F)F)cc2)OCCCC[C@H](C)Oc2ccc(NS(=O)(=O)c3cccs3)cc2C1=O,inactive,inactive,inactive
C[C@@H]1CN([C@H](C)CO)C(=O)CCCn2cc(nn2)CO[C@@H]1CN(C)C(=O)Nc1cccc(C(F)(F)F)c1,inactive,inactive,inactive

Structure (SMILES),cytotoxicity call (HSkMC),cytotoxicity call (HepG2),growth inhibition call (S. aureus RN4220)
C[C@H]1CN([C@@H](C)CO)C(=O)CCCn2cc(nn2)CO[C@H]1CN(C)S(=O)(=O)c1ccc(Oc2ccccc2)cc1,inactive,inactive,inactive
C[C@@H](N)[C@H]1CC[C@H](C(=O)Nc2ccncc2)CC1,inactive,inactive,inactive
Cc1noc(C)c1S(=O)(=O)N(C)C[C@H]1Oc2ccc(NC(=O)NC3CCCCC3)cc2CC(=O)N([C@H](C)CO)C[C@@H]1C,inactive,inactive,inactive
Cc1nnc(NCCc2ccccc2)n(N)c1=O,inactive,inactive,inactive
C[C@@H]1CC[C@@]2(OC1)O[C@H]1C[C@H]3[C@H]4C[C@@H](O)[C@H]5C[C@@H](O[C@@H]6O[C@H](CO)[C@H](O[C@@H]7O[C@H](CO)[C@@H](O)[C@H](O[C@@H]8OC[C@@H](O)[C@H](O)[C@H]8O)[C@H]7O[C@@H]7O[C@H](CO)[C@@H](O[C@@H]8O[C@H](CO)[C@@H](O)[C@H](O)[C@H]8O)[C@H](O)[C@H]7O)[C@H](O)[C@H]6O)[C@H](O)C[C@]5(C)[C@@H]4CC[C@]3(C)[C@H]1[C@@H]2C,active,active,inactive
C[C@@H]1CN([C@H](C)CO)C(=O)c2cc(NC(=O)Nc3ccc(C(F)(F)F)cc3)ccc2O[C@@H](C)CCCCO[C@@H]1CN(C)C(=O)C1CCCCC1,inactive,active,inactive
CC(C)NC(=O)N[C@H]1C=C[C@H](CC(=O)O)O[C@H]1CO,inactive,inactive,inactive
C[C@@H]1CCCCO[C@H](CN(C)C(=O)NC2CCCCC2)[C@@H](C)CN([C@H](C)CO)C(=O)c2cc(NC(=O)Nc3cccc4ccccc34)ccc2O1,inactive,inactive,inactive
CN(C)c1ccsc1C(=O)NN,inactive,inactive,inactive
CC(C)(C)C(=O)Nc1ccccc1F,inactive,inactive,inactive
C[C@H](CO)N1C[C@H](C)[C@@H](CN(C)C(=O)C2CCCCC2)OCCCC[C@H](C)Oc2ccc(NC(=O)Cc3ccccc3)cc2C1=O,inactive,inactive,inactive
Cc1noc(C)c1S(=O)(=O)N(C)C[C@H]1OCCCC[C@@H](C)Oc2ccc(NC(=O)Nc3cccc4ccccc34)cc2C(=O)N([C@@H](C)CO)C[C@@H]1C,inactive,inactive,inactive
COc1ccccc1CNC(=O)C[C@@H]1C[C@@H]2c3cc(NC(=O)Cc4ccncc4)ccc3O[C@@H]2[C@H](CO)O1,inactive,inactive,inactive
C[C@@H]1CN([C@@H](C)CO)C(=O)Cc2cc(NC(=O)Cn3cnnn3)ccc2O[C@@H]1CN(C)C(=O)Nc1ccc2c(c1)OCO2,inactive,inactive,inactive
COc1cc(O)c2c(c1)C(=O)c1cc(C)cc(O)c1C2=O,inactive,inactive,inactive
Cc1noc(C2CNC2)n1,inactive,inactive,inactive
CC(C)(N)c1cn(CC2CCN(C(=O)c3ccccc3-n3cccn3)CC2)nn1,inactive,inactive,inactive
C[C@@H]1CCCCO[C@@H](CN(C)Cc2ccc(C(=O)O)cc2)[C@@H](C)CN([C@@H](C)CO)C(=O)c2cc(NC(=O)CCC(F)(F)F)ccc2O1,inactive,inactive,inactive
Cc1cccc(C)c1OCC(C)N.Cl (stereo not given),inactive,active,inactive
C[C@H](CO)N1C[C@H](C)[C@@H](CN(C)C(=O)NC2CCCCC2)Oc2ccc(NC(=O)Nc3ccc(C(F)(F)F)cc3)cc2C1=O,inactive,inactive,inactive
C[C@H](CO)N1C[C@H](C)[C@@H](CN(C)S(=O)(=O)c2ccc(F)cc2)Oc2ccc(NC(=O)CCCN(C)C)cc2C1=O,inactive,inactive,inactive
C[C@@H]1CCCCO[C@H](CN(C)C(=O)Nc2ccc(C(F)(F)F)cc2)[C@@H](C)CN([C@H](C)CO)C(=O)c2cc(NC(=O)Nc3ccc(C(F)(F)F)cc3)ccc2O1,inactive,inactive,inactive
COc1ccc([Si](C)(C)[C@@H]2[C@@H](CCO)O[C@]3(C(=O)N(Cc4cccc(N5C(=O)COc6ccccc65)c4)c4ccccc43)[C@H]2C)cc1,inactive,active,inactive
C[C@H](CO)N1C[C@H](C)[C@H](CN(C)S(=O)(=O)c2cccs2)Oc2ccc(NC(=O)CCCN(C)C)cc2C1=O,inactive,inactive,inactive
COc1ccc(NC(=O)Nc2ccc3c(c2)C(=O)N([C@H](C)CO)C[C@H](C)[C@@H](CN(C)C(=O)C2CCCCC2)OCCCC[C@@H](C)O3)cc1,inactive,inactive,inactive
C[C@@H]1CN([C@@H](C)CO)C(=O)Cc2cc(N(C)C)ccc2O[C@@H]1CN(C)S(=O)(=O)c1cn(C)cn1,inactive,inactive,inactive
COc1ccc(S(=O)(=O)N(C)C[C@H]2Oc3cc(C4=CCCC4)ccc3S(=O)(=O)N([C@@H](C)CO)C[C@@H]2C)cc1,inactive,inactive,inactive
